Test [1] concerns the target PP2Aa–STRN3–PP2Ac holophosphatase (Homo sapiens, UniProt P30153). To be noted: in vitro, dose-dependent.
Another test concerns the target T1, STRN3–MST2 interaction (Homo sapiens, UniProt Q13188).
T1 sequence (Q13188 1-491): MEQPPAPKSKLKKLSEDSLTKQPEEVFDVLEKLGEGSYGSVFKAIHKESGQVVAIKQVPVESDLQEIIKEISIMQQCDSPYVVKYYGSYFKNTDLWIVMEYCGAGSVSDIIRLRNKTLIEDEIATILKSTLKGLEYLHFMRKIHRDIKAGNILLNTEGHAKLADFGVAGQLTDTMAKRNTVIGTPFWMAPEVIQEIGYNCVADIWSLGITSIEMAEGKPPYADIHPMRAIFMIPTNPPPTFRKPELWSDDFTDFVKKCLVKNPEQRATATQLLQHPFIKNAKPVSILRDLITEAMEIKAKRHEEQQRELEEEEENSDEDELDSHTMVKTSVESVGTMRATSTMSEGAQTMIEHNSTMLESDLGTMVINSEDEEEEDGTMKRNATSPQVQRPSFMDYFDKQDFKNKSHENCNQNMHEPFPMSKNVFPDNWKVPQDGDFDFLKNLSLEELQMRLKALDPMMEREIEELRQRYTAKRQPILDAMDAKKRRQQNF
The test is described as follows: Primary AlphaScreen, STRN3–MST2 disruption (Table S3). The format is binding. Further details: His-SUMO; made in house; host or cells: E. coli BL21 Codon plus (DE3). For orientation: Bead proximity is the source of the signal in Alpha formats.

Another test concerns the target PP2Aa–STRN3 interaction (Homo sapiens, UniProt P30153). As to the kind of experiment: First-round AlphaScreen, PP2Aa–STRN3 disruption (Table S1). To be noted: primary AlphaScreen.

Chain of PP2Aa–STRN3–PP2Ac holophosphatase (P30153 8-589): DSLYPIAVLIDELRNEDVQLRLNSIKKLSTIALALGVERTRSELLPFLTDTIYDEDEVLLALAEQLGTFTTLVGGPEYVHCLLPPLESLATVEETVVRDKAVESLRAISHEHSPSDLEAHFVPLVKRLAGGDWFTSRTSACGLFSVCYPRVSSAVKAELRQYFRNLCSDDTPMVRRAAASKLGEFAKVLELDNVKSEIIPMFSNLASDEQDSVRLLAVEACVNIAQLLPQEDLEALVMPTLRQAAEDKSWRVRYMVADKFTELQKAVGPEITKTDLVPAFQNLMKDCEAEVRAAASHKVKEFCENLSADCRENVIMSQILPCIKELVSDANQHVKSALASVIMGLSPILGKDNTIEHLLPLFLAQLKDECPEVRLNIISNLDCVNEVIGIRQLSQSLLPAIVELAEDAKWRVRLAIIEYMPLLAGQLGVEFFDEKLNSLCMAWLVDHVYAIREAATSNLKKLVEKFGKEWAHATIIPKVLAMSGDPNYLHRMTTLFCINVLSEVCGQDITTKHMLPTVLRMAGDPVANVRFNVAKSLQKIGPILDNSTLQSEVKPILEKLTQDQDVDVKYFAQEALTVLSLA
Chain of PP2Aa–STRN3–PP2Ac holophosphatase (P67775 whole entry partner): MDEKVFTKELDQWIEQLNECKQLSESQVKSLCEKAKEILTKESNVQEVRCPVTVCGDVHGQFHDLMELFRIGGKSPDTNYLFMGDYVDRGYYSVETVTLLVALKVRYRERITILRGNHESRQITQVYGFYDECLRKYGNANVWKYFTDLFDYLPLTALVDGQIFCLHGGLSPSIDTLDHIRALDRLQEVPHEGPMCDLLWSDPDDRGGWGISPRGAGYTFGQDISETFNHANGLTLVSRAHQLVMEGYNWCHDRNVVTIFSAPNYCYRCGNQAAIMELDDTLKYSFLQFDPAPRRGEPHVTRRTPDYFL
Chain of PP2Aa–STRN3 interaction (P30153 8-589): as the sequence (P30153 8-589) above

Regarding `CCN(CC)C(=S)SSC(=S)N(CC)CC` [DSF, disulfiram], the “phosphorylation level of MST1/2 (pMST1/2) in dephosphorylation assay” value in test [1] is listed as “dramatically recovered”.

As to `OC[C@H]1O[C@@H](OCCc2ccc(O)cc2)[C@H](O)[C@@H](O)[C@@H]1O` [Salidroside], the “Inhibition rate (%)” value is recorded as 1.142% at STRN3–MST2 interaction and -7.759% on PP2Aa–STRN3 interaction.

Turning to `CN(C)C(=S)SSC(=S)N(C)C` [TH, thiram], the “phosphorylation level of MST1/2 (pMST1/2) in dephosphorylation assay” value in test [1] is on record as “dose-dependently recover”.

In the case of `NCCS(=O)(=O)O` [Taurine], the “Inhibition rate (%)” value is listed as -4.763% at STRN3–MST2 interaction and -6.659% at PP2Aa–STRN3 interaction.

Source of the values: publication PMC11126936, “Reactivating Hippo by drug compounds to suppress gastric cancer and enhance chemotherapy sensitivity” (The Journal of Biological Chemistry, 2024).
